Reference: PubChem BioAssay AID504332 (National Center for Advancing Translational Sciences (NCATS), 2011)
In all, about 350,000 compounds went through this assay and about 31,000 (8.9%) were called active. Inconclusive results, whose numbers are uncertain, are shown with a selection of clear calls. Calls come from the whole dose curve; as a rule, active = well fitted inhibition curve with a large enough effect; inconclusive = small, poorly fitted or top-dose-only effect; inactive = no such curve, though single readings can be large or run the other way. Where the call is inconclusive, the potency comes from a doubtful curve fit.
% is set by controls: 0 for no effect and ±100 for the full control effect; potency is the fitted concentration of half-maximal effect; tags give direction and shape of the fitted curve.
Note: nearly all actives have a fitted effect of over 75% in size.

Each molecule was assayed against Histone-lysine N-methyltransferase EHMT2 (Homo sapiens) (UniProt Q96KQ7) (assay: qHTS Assay for Inhibitors of Histone Lysine Methyltransferase G9a). Details: G9a H3K9 monomethylation, AlphaScreen, 2 h; activity, negative = inhibition: at 59 µM (top of the series) unless noted.
UniProt Q96KQ7, sequence (Q96KQ7 whole entry, looked up): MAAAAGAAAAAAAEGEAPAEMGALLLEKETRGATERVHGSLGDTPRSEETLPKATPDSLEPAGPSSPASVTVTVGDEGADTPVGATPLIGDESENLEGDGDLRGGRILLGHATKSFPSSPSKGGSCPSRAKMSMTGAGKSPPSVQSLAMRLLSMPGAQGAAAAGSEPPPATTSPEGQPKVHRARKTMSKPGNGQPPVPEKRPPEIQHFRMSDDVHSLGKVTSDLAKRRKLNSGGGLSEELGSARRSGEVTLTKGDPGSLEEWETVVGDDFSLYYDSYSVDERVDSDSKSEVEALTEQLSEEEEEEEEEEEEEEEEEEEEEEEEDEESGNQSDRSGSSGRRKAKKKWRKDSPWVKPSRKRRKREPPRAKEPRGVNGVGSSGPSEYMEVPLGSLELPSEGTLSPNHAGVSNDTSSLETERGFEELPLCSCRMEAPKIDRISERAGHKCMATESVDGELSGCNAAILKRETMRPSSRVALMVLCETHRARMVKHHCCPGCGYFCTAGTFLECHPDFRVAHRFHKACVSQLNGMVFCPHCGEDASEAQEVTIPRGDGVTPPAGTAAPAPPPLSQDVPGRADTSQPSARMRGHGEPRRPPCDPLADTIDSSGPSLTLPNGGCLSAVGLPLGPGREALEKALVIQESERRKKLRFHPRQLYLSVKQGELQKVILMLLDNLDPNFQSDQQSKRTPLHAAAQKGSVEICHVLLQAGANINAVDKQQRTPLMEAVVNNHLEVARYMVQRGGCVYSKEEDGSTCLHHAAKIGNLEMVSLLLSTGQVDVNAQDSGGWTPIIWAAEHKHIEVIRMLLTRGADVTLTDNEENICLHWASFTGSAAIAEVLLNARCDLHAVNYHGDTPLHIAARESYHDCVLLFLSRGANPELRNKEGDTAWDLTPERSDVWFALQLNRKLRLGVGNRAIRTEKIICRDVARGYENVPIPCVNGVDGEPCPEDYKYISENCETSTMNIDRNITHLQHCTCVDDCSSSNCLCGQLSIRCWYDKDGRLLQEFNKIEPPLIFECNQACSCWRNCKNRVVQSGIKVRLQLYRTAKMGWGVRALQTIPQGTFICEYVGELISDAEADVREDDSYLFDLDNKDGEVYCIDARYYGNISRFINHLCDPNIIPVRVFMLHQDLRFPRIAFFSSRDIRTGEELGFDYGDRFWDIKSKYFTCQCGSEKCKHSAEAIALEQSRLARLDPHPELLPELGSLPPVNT
Outline: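 Enzyme 20 nM + cpd, 15 min RT; add b-H3K9 pep 500 nM / SAM 20 uM; 2 h RT; anti-H3K9me1 Ab 0.5 ug/mL + SA donor / anti-rabbit acceptor beads 20 ug/mL each, 10 min; AlphaScreen read.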
For `CC(=O)c1ccc(OCC(O)CN2CCN(CCO)CC2)cc1` (configuration not stated), the “activity, negative = inhibition” value was inactive: -18.5%. With `O=C(O)CCSc1nnc(COc2cccc3ccccc23)n1-c1cccc(Cl)c1` the Potency was inconclusive: 50.1 µM [inhibitor, partial curve]. In the case of `CC1=NC(C(F)(F)F)(C(F)(F)F)C(C#N)=C(C)N1`, the “activity, negative = inhibition” value is reported as inactive: -28.7% [at 102 µM]. With `Cc1ccc2c(c1)N(C(=O)C1CCN(S(=O)(=O)c3c(C)noc3/C=C/c3ccccc3F)CC1)CCO2` the “activity, negative = inhibition” value was inactive: -3.41%. For `CC(C)NC(=O)c1sc2c(c1C(=O)Nc1cccnc1)CCCC2`, the Potency was inconclusive: 89.1 µM [inhibitor, partial curve, poor fit]. For `CCn1c(SCc2ccc(F)cc2Cl)nnc1-c1nonc1NC(C)=O`, the “activity, negative = inhibition” value was inactive: 1.01%. In the case of `CCN1CCN(C(=O)Nc2ccccc2OC)CC1`, the Potency is reported as active: 2.24 µM. With `O=C(COC(=O)c1cc([N+](=O)[O-])ccc1NCCO)c1ccc(Cl)cc1` the Potency was inconclusive: 79.4 µM [inhibitor, partial curve, poor fit]. For `Cc1cc(C)c(NC(=O)Cn2ccn(-c3cccc(Cl)c3)c(=O)c2=O)c(C)c1`, the “activity, negative = inhibition” value was inactive: 28.1%. For `CCCCOc1ccc(Nc2nc(C)cc(C)c2C#N)cc1`, the “activity, negative = inhibition” value was inactive: 13.8%. For `O=C(COC(=O)C1CC1)Nc1c(Cl)cccc1C(F)(F)F`, the Potency was inconclusive: 44.7 µM [inhibitor, partial curve, poor fit]. In the case of `O=C(Nc1nnc(S(=O)(=O)N2CCCc3ccccc32)s1)c1cccc(F)c1`, the “activity, negative = inhibition” value is reported as inactive: -6.49%. For `C=CCn1c(SCC(=O)N2CCOCC2)nc2sc(C)c(C)c2c1=O`, the “activity, negative = inhibition” value was inactive: -10.6% [at 102 µM]. For `CCc1ccc(C(=O)NC(=S)Nc2ccc3c(c2)OCCO3)cc1`, the Potency was inconclusive: 39.8 µM [inhibitor, single point]. In the case of `CC(C)(C)c1ccc(S(=O)(=O)c2cn(CC(=O)Nc3ccccc3)c3ccccc3c2=O)cc1`, the “activity, negative = inhibition” value is reported as inactive: -4.31%. `Cc1ccccc1-n1c(C)cc(/C=N/Nc2ccc([N+](=O)[O-])cn2)c1C` was tested, and the Potency was inconclusive: 3.16 µM [inhibitor, partial curve, poor fit]. For `CCOC(=O)C1CCCN(C(=O)c2ccc(Cn3c(=S)[nH]c4cc(C(=O)OC)ccc4c3=O)cc2)C1` (configuration not stated), the “activity, negative = inhibition” value was inactive: 51.8%. With `COc1ccccc1NC(=O)NC(=O)N(C(C)C)S(C)(=O)=O` the Potency was inconclusive: 89.1 µM [inhibitor, single point]. For `CCc1nc(SCC(=O)N2CCC(Cc3ccccc3)CC2)c2c(=O)n(C)c(=O)n(C)c2n1`, the Potency was inconclusive: 25.1 µM [inhibitor, partial curve, poor fit]. With `CCOC(=O)c1cc(C(C)=O)c(=O)[nH]c1C` the “activity, negative = inhibition” value was inactive: 22.1% [at 102 µM]. For `COc1ccc2c(Sc3ccccc3)c(C(=O)NCCCN3CCCCC3)[nH]c2c1`, the Potency was inconclusive: 39.8 µM [inhibitor, partial curve, poor fit]. In the case of `O=C(NNC(=O)C1CCCC1)c1ccc(F)cc1`, the “activity, negative = inhibition” value is reported as inactive: 20.9% [at 102 µM]. In the case of `CC(OC(=O)CN1C(=O)c2ccccc2C1=O)C(=O)N(C)c1ccccc1` (configuration not stated), the “activity, negative = inhibition” value is reported as inactive: -8.89% [at 102 µM]. With `Cc1ccccc1C(=O)O/N=C1\CCS(=O)(=O)c2sccc21` the Potency was inconclusive: 28.2 µM [inhibitor, partial curve, poor fit]. In the case of `CC1CCCc2sc3nc(NCc4ccco4)n4ncnc4c3c21` (configuration not stated), the Potency is reported as inconclusive: 35.5 µM [inhibitor, single point]. In the case of `O=C(CSc1ccc(-c2ccccc2)nn1)c1ccccc1`, the Potency is reported as inconclusive: 79.4 µM [inhibitor, single point]. In the case of `CN(C)c1ccc(N=Cc2ccco2)cc1`, the Potency is reported as active: 10 µM. With `CN1CCN(C(=O)CCCN2C(=O)/C(=C/c3ccccc3)SC2=S)CC1` the Potency was inconclusive: 39.8 µM [inhibitor, single point]. `O=C(NCCCN1CCOCC1)c1cc(-c2cccs2)on1` was tested, and the Potency was inconclusive: 89.1 µM [inhibitor, single point]. For `Cn1c(N)c(-c2nc3cccnc3n2C)sc1=S`, the Potency was inconclusive: 89.1 µM [inhibitor, partial curve, poor fit]. With `CC(=O)Nc1cc(O)cc(O)c1` the “activity, negative = inhibition” value was inactive: -6.37%. For `O=C(Cn1c(=O)oc2ccccc21)Nc1nc(-c2ccc(Br)cc2)cs1`, the Potency was inconclusive: 4.47 µM [inhibitor, partial curve, poor fit]. For `CCc1nnc(NS(=O)(=O)c2ccc(NC(=S)NC(=O)/C=C/c3ccc(OC)cc3)cc2)s1`, the Potency was active: 50.1 µM. In the case of `CCCCCCCN1C2=NCCCN2c2ccccc21`, the Potency is reported as inconclusive: 2.82 µM [inhibitor, partial curve, poor fit]. `Cc1cc(N2CCN(C)CC2)nc2ccc(NC(=O)c3cccnc3Cl)cc12` was tested, and the Potency was inconclusive: 89.1 µM [inhibitor, single point]. For `CCc1c(C)[nH]n(-c2ccc(Oc3ccccc3)c(S(=O)(=O)O)c2)c1=O`, the Potency was inconclusive: 31.6 µM [inhibitor, single point]. With `Cc1ccccc1-c1n[nH]c(=S)n1/N=C/c1c(C)nn(-c2ccccc2)c1C` the Potency was active: 1 µM. In the case of `COc1ccc(S(=O)(=O)Cc2ccc(C(=O)N3CCOCC3)o2)cc1`, the Potency is reported as inconclusive: 50.1 µM [inhibitor, partial curve]. With `OC(c1cc(C(F)(F)F)nc2c(Cl)cc(Cl)cc12)C1CCCCN1` (configuration not stated) the Potency was inconclusive: 89.1 µM [inhibitor, single point]. `CCOC(=O)N1CCN(CC(O)c2ccccc2)CC1` (configuration not stated) was tested, and the Potency was active: 7.94 µM. With `COc1cccc(-c2nnc(-c3ccc(C)o3)o2)c1` the Potency was active: 12.6 µM. For `COc1cc2c(cc1OC)CN(C(=O)c1ccc(OC)c([N+](=O)[O-])c1)CC2`, the Potency was inconclusive: 79.4 µM [inhibitor, partial curve, poor fit]. With `O=C(NC1CCCCC1)c1cc([N+](=O)[O-])ccc1N1CCCCC1` the activity, negative = inhibition was inconclusive: -55.3% [inhibitor]. For `COc1ccc(-n2nc3c(N4CCCC(C(=O)NCc5ccc(C)cc5)C4)nnc(C)c3c2C)cc1` (configuration not stated), the Potency was inconclusive: 35.5 µM [inhibitor, single point]. For `COc1cccc(NC(=O)CSc2nnc(-c3cccc(OC(C)C)c3)n2N)c1`, the Potency was active: 25.1 µM. In the case of `CCn1c(=O)cc(OCC(=O)N(C)C2CCCCC2)c2ccccc21`, the “activity, negative = inhibition” value is reported as inactive: -18.9% [at 102 µM]. In the case of `O=C(c1cc2c(s1)CCCC2)N1CCN(Cc2ccc3c(c2)OCO3)CC1`, the Potency is reported as inconclusive: 35.5 µM [inhibitor, single point]. For `COc1ccccc1N(CC(O)CN1CCC(C)CC1)S(=O)(=O)c1ccccc1` (configuration not stated), the Potency was inconclusive: 22.4 µM [inhibitor, partial curve, poor fit]. `COc1ccc2[nH]c(C)c(CCN3C(=O)C4C5C=CC(C5)C4C3=O)c2c1` (configuration not stated) was tested, and the Potency was inconclusive: 89.1 µM [inhibitor, single point]. For `COc1ccc(N2CCN(C(=O)c3ccc(CNS(=O)(=O)c4ccc(C)cc4)cc3)CC2)cc1`, the Potency was inconclusive: 17.8 µM [inhibitor, single point]. For `O=C1CN(C(=S)Nc2ccccc2Cl)CCN1`, the Potency was active: 44.7 µM. With `O=C1OC(c2cccs2)=N/C1=C/c1ccc(-c2cccc(C(=O)O)c2)o1` the Potency was active: 7.94 µM. For `O=C(C1CCN(S(=O)(=O)c2cnc[nH]2)CC1)N1CCN(Cc2ccc3c(c2)OCO3)CC1`, the activity, negative = inhibition was inactive: -12% [at 12.7 µM]. `COc1ccc(CN(C)C(=O)c2ccc(Cl)c(S(=O)(=O)NCc3cccnc3)c2)cc1F` was tested, and the activity, negative = inhibition was inconclusive: -58.5% [inhibitor] [at 2.33 µM]. In the case of `Cc1ccc(C(=O)NC(=S)Nc2ccccc2C)cc1`, the Potency is reported as inconclusive: 35.5 µM [inhibitor, partial curve]. `COCCCNCCCCOc1ccc(Br)cc1Cl` was tested, and the Potency was inconclusive: 31.6 µM [inhibitor, single point]. In the case of `CCOC(=O)C1=C(C)NC2=C(C(=O)CCC2)C1c1ccc(N(C)C)cc1` (configuration not stated), the Potency is reported as inconclusive: 1.26 µM [inhibitor, single point]. With `Nn1c(SCC(=O)Nc2ccc(S(N)(=O)=O)cc2)nnc1-c1ccco1` the “activity, negative = inhibition” value was inactive: -1.61% [at 102 µM]. With `CC1=NN(c2nc(-c3ccc(C)cc3)cs2)C(=O)C1N=Nc1ccc2ccccc2c1` (configuration not stated) the Potency was active: 1 µM. `O=C1/C(=C/c2ccncc2)CCC/C1=C\c1ccncc1` was tested, and the Potency was inconclusive: 31.6 µM [inhibitor, single point]. For `Cc1ccc(CCNC(c2ccc(F)cc2)c2nnc(-c3ccccc3Cl)o2)cc1` (configuration not stated), the “activity, negative = inhibition” value was inactive: 151%. In the case of `Cc1ccc2nc3c(c(N)c2c1)CCN3c1ccccc1`, the Potency is reported as active: 17.8 µM. In the case of `COC(=O)c1ccc(OCC(O)CNCC(c2ccc(OC)cc2)N(C)C)c(OC)c1` (configuration not stated), the Potency is reported as inconclusive: 3.98 µM [inhibitor, full curve, poor fit]. In the case of `CCOc1ccc2oc(C(=O)N(CC)CC(=O)Nc3c(F)cccc3F)c(C)c2c1`, the Potency is reported as inconclusive: 79.4 µM [inhibitor, partial curve, poor fit]. With `COc1ccc(C(=O)NC2CC(=O)N(c3ccc4c(c3)OCCO4)C2)cc1` (configuration not stated) the “activity, negative = inhibition” value was inactive: 1.32%. In the case of `CCOC(=O)N1CCN(C(=O)CN2C(=O)NC(c3ccccc3)(c3ccccc3)C2=O)CC1`, the “activity, negative = inhibition” value is reported as inactive: -6.39% [at 102 µM]. `CCOc1cc(C(=O)N(C)CC(=O)Nc2cccc3ccccc23)ccc1OC` was tested, and the Potency was inconclusive: 20 µM [inhibitor, single point]. In the case of `CCCN1C(=O)/C(=C\c2ccncc2)SC1=Nc1ccccc1`, the Potency is reported as inconclusive: 28.2 µM [inhibitor, single point]. In the case of `Cc1c(-c2nnc(SCC(=O)Nc3ccccc3F)o2)nnn1-c1ccc(F)cc1`, the “activity, negative = inhibition” value is reported as inactive: -3.89%. `S=C(NCc1ccco1)Nc1ccc2c(c1)OCCO2` was tested, and the Potency was active: 44.7 µM. With `CC(C)Cn1cc(NC(=O)Nc2cccc(C(F)(F)F)c2)c2ccccc2c1=O` the Potency was inconclusive: 1.78 µM [inhibitor, full curve]. With `CC(=O)N1CCc2cc(S(=O)(=O)NC(CC(C)C)C(=O)Nc3ccc(C(C)C)cc3)ccc21` (configuration not stated) the “activity, negative = inhibition” value was inactive: -6.63%.
